{"source": "ChEMBL document CHEMBL4888484", "about": "“Replenishing the malaria drug discovery pipeline: Screening and hit evaluation of the MMV Hit Generation Library 1 (HGL1) against asexual blood stage Plasmodium falciparum ,using a nano luciferase reporter read-out” (2022)", "note": "The campaign covered roughly 150,000 compounds. About 540 (0.36%) showed an effect of 50% or more. The list shows a part of the results."}
{"test_system": "Plasmodium falciparum", "experiment": "Primary screen in NF54 nanoGlo assay, in single point, at 2uM, 72h; a lower Z score goes with more inhibition", "assay_type": "functional, Erythrocyte", "conditions": "timepoint 72 hour", "units": {"% Inhibition": "%"}}
{"smiles": "C[C@H]1CCN(Cc2ccsc2)CCS1(=O)=O", "% Inhibition": -1, "Z score": 0.19}
{"smiles": "Nc1nc(N2CCOCC2)ncc1C(=O)NCc1ccccc1", "% Inhibition": -15, "Z score": 1.7}
{"smiles": "Cc1noc(C2CC2)c1NC(=O)N[C@@]1(CO)CCCc2ccccc21", "% Inhibition": -10, "Z score": 1.22}
{"smiles": "CCn1c(CC2CCN(C(=O)[C@H](C)n3cnnn3)CC2)nn(C)c1=O", "% Inhibition": -12, "Z score": 2.35}
{"smiles": "CC1CCN(C[C@H]2CCCN(CCc3cccnc3)C2)CC1", "% Inhibition": -6, "Z score": 0.68}
{"smiles": "O=C(NC1CCCCC1)N1CC[C@H](c2nc(CCOCc3ccccc3)no2)C1", "% Inhibition": -18, "Z score": 2.32}
{"smiles": "COCc1ccc(C(=O)N2CC[C@H](N(C(=O)c3ccc(COC)cc3)C3CC3)C2)cc1", "% Inhibition": 24, "Z score": -2.74}
{"smiles": "Cc1oc(-c2ccccc2Cl)nc1CN1CCNC(=O)[C@@H]1Cc1ccccc1", "% Inhibition": -18, "Z score": 1.92}
{"smiles": "O=C(N[C@H]1CCOC[C@@H]1O)c1nc2ccccc2[nH]c1=O", "% Inhibition": 9, "Z score": -1.03}
{"smiles": "CN1C[C@@H](C(=O)Nc2ccc3c(c2)OCO3)CC1=O", "% Inhibition": -11, "Z score": 1.06}
{"smiles": "Cc1nc(C)n(CCCN[C@H]2CCCC(C)(C)C2)n1", "% Inhibition": 0, "Z score": -0.04}
{"smiles": "CCC(C)C(NC(=O)Cc1cc(C#N)ccn1)C(F)(F)F", "note": "(stereo unspecified)", "% Inhibition": 10, "Z score": -1.17}
{"smiles": "C[C@]1(c2cc(F)ccc2F)NC(=O)N(c2ccncc2)C1=O", "% Inhibition": 10, "Z score": -1.15}
{"smiles": "O=C(CN1CCC(n2cncn2)CC1)Nc1nc2ccccc2s1", "% Inhibition": -12, "Z score": 1.63}
{"smiles": "O=C(c1cnn[nH]1)N1CCC2(CC1)CCN(c1ccccc1)C2=O", "% Inhibition": 6, "Z score": -1.11}
{"smiles": "Cc1ccc(Cl)cc1NC(=O)c1cc(-c2cnn(-c3ccc(C(C)C)cc3)c2C)nc2ccccc12", "% Inhibition": -3, "Z score": 0.42}
{"smiles": "CCC(C)C(=O)OCC1CCCN(C)C1c1ccc(C(F)(F)F)cc1", "note": "(stereo unspecified)", "% Inhibition": -3, "Z score": 0.54}
{"smiles": "O=C(NCc1ccccc1)N1CCCN(C2=Nc3ccccc3Oc3ccccc32)CC1", "% Inhibition": -7, "Z score": 0.97}
{"smiles": "Cc1cc(=O)c2cccc(C(=O)NCCNS(C)(=O)=O)c2[nH]1", "% Inhibition": -18, "Z score": 1.77}
{"smiles": "C[C@H]1CN(C(=O)Cc2ccn(C)n2)CC(=O)N1C", "% Inhibition": -4, "Z score": 0.67}
{"smiles": "CCOC(=O)N1CCC(N[C@H](c2nccs2)C2CC2)CC1", "% Inhibition": -8, "Z score": 0.82}
{"smiles": "Cn1ccnc1CCNc1cc(C(F)F)ncn1", "% Inhibition": -4, "Z score": 0.64}
{"smiles": "O=C1NCCCOc2cccc(c2)[C@H]2c3ccc(cc3CCN2C(=O)CNC2CC2)Oc2ccc(O)c1c2", "% Inhibition": 21, "Z score": -2.34}
{"smiles": "Cc1cnc(C(=O)N2CCCCC[C@@H]2CN2CCCC2)cn1", "% Inhibition": -4, "Z score": 0.56}
{"smiles": "O=S(=O)(c1ccc(F)c(Cl)c1)N1CCCN(c2nc3ccccc3nc2-c2ccccc2)CC1", "% Inhibition": -3, "Z score": 0.25}
{"smiles": "CNC(=O)Nc1cccc(NC(=O)c2cncc(-c3cnn(C)c3)c2)c1", "% Inhibition": 24, "Z score": -3.15}
{"smiles": "N#CCc1ccc(OCC(=O)Nc2ccccc2N2CCc3ccccc32)cc1", "% Inhibition": 18, "Z score": -2.26}
{"smiles": "COc1ccc(OC)c(-c2cc(C(=O)NCC#CCN3CCc4ccccc4C3)[nH]n2)c1", "% Inhibition": -3, "Z score": 0.52}
{"smiles": "Cc1nc(C(C)C)sc1CNC(=O)c1cccn1C1CC1", "% Inhibition": -13, "Z score": 1.51}
{"smiles": "N/C(=N/O)c1nsc(Nc2ccccc2)n1", "% Inhibition": -14, "Z score": 1.79}
{"smiles": "Cc1cnc(CN[C@H]2CCCN(C(=O)OC(C)(C)C)C2)s1", "% Inhibition": -11, "Z score": 1.08}
{"smiles": "COCCN1CCN(CCc2ccccc2)[C@@H]2CS(=O)(=O)C[C@@H]21", "% Inhibition": -17, "Z score": 1.98}
{"smiles": "CCC[C@]1(COC)CCCN1C(=O)Cc1ccc(C)nc1", "% Inhibition": -4, "Z score": 0.65}
{"smiles": "CCCN(Cc1c(C)nn(-c2cccc(F)c2)c1N1CCN(CC)CC1)C(=O)Nc1ccc(C)cc1C", "% Inhibition": -2, "Z score": 0.3}
{"smiles": "O=C(CN1CCCC[C@@H]1CCN1CCCC1=O)NCc1ccccc1F", "% Inhibition": -6, "Z score": 1.08}
{"smiles": "O=C(Nc1ccccc1-c1cn2c(n1)CCCC2)c1ccc(=O)[nH]n1", "% Inhibition": 13, "Z score": -1.72}
{"smiles": "Cc1nc(C2CCN(Cc3c(C)[nH]c4c(C)cccc34)CC2)cc(=O)[nH]1", "% Inhibition": -25, "Z score": 2.34}
{"smiles": "CCOC(=O)c1cnc(-c2ccc(OC)cc2)nc1N(C)Cc1ccccc1", "% Inhibition": -4, "Z score": 0.51}
{"smiles": "Cc1cccc(C(=O)N(Cc2ccco2)[C@H]2CCS(=O)(=O)C2)n1", "% Inhibition": -7, "Z score": 1.46}
{"smiles": "CC[C@@H](c1nc(-c2ccc(-n3nc(C)cc3N)cc2)no1)n1cccn1", "% Inhibition": -2, "Z score": 0.32}
{"smiles": "COCc1nc(NC2CCC(NC(=O)c3ccccc3F)CC2)c2cnn(-c3ccccc3Cl)c2n1", "note": "(stereo unspecified)", "% Inhibition": 13, "Z score": -2.27}
{"smiles": "CCOCCN(C)C1CC2CCCCC2NC1=O", "note": "(stereo unspecified)", "% Inhibition": -11, "Z score": 2.08}
{"smiles": "CCc1nn(C)c(Cl)c1CN1CCc2[nH]cnc2[C@H]1c1ccncc1", "% Inhibition": -11, "Z score": 1.38}
{"smiles": "CC(C)COC(C)C(=O)NC(Cc1ccccc1)c1ncon1", "note": "(stereo unspecified)", "% Inhibition": 37, "Z score": -3.5}
{"smiles": "CC(=O)N1CCN(C(=O)c2cnn3c(-c4ccc(C)c(C)c4)ccnc23)CC1", "% Inhibition": -8, "Z score": 1.09}
{"smiles": "Cc1cc(CN(C)Cc2cnccn2)c(C)c(CN2CCC[C@H](C)C2)c1", "% Inhibition": -7, "Z score": 1.33}
{"smiles": "Cc1ccc(-c2noc(Cn3ncn4nc(-c5cc(C)ccc5C)cc4c3=O)n2)cc1", "% Inhibition": -5, "Z score": 0.56}
{"smiles": "Cc1cc(C(=O)N2CCC(c3nc(-c4cccn4C)no3)CC2)nn1C", "% Inhibition": -17, "Z score": 2.29}
{"smiles": "COCc1nc([C@@H]2COCCN2C(=O)c2cc(C)n(C(C)C)c2C)no1", "% Inhibition": -8, "Z score": 0.83}
{"smiles": "Cc1ccc(-c2cc(C(=O)NCCc3csc4c3CCCC4)[nH]n2)s1", "% Inhibition": -14, "Z score": 1.82}
{"smiles": "c1ccc([C@@H]2C[C@H](c3cccs3)n3ncnc3N2)cc1", "% Inhibition": -8, "Z score": 0.89}
{"smiles": "OCC1CCN(CCNc2ncccc2Cl)CC1", "% Inhibition": -5, "Z score": 0.92}
{"smiles": "Cc1nn(CCO)cc1CN1C[C@@H]2CC[C@H]1CN(c1cnccn1)C2", "% Inhibition": -13, "Z score": 1.84}
